Experimental data taken from paper PMC11291268 (2024).

B1: GFP-Ric8A [not stated] / nontagged Gαo G203R [human] (parent complex)
chain 1: MEPRAVADALETGEEDAVTEALRSFNREHSQSFTFDDAQQEDRKRLAKLLVSVLEQGLSPKHRVTWLQTIRILSRDRSCLDSFASRQSLHALACYADITVSEEPIPQSPDMDVLLESLKCLCNLVLSSPTAQMLAAEARLVVRLAERVGLYRKRSYPHEVQFFDLRLLFLLTALRTDVRQQLFQELHGVRLLTDALELTLGVAPKENPPVMLPAQETERAMEILKVLFNITFDSVKREVDEEDAALYRYLGTLLRHCVMVEAAGDRTEEFHGHTVNLLGNLPLKCLDVLLALELHEGSLEFMGVNMDVISALLAFLEKRLHQTHRLKECVAPVLNVLTECARMHRPARKFLKAQVLPPLRDVRTRPEVGDLLRNKLVRLMTHLDTDVKRVAAEFLFVLCSESVPRFIKYTGYGNAAGLLAARGLMAGGRPEGQYSEDEDTDTEEYREAKASINPVTGRVEEKPPNPMEGMTEEQKEHEAMKLVNMFDKLSRHRVIQPMGMSPRGHLTSLQDAMCETMEGQLSSDPDSDPD
chain 2: not shown
B2: GFP-Ric8A [not stated] / nontagged Gαo R209C [human] (parent complex)
chain 1: B1 chain 1
chain 2: not shown
B3: GFP-Ric8A [not stated] / nontagged Gαo E246K [human] (parent complex)
chain 1: B1 chain 1
chain 2: not shown

Variants of: B1
Assay: co-IP (anti-GFP nanobody) with Western blot quantification; N2a cells; partner is nontagged Gαo G203R; n = 4–5; parent: 1; read off a plot

Row | Variant | ratio to parent
1 | chain 1 R75E | ~0.02
2 | chain 1 K225A | ~0.43

Variants of: B2
Assay: co-IP (anti-GFP nanobody) with Western blot quantification; N2a cells; partner is nontagged Gαo R209C; n = 4–5; parent: 1; read off a plot

Row | Variant | ratio to parent
3 | chain 1 R75E | ~0.02
4 | chain 1 K225A | ~0.3

Variants of: B3
Assay: co-IP (anti-GFP nanobody) with Western blot quantification; N2a cells; partner is nontagged Gαo E246K; n = 4–5; parent: 1; read off a plot

Row | Variant | ratio to parent
5 | chain 1 K225A | ~0.33
6 | chain 1 R75E | ~0.02
